Results reported in the supplement of paper PMC4967469.

Experiments:
Test in all cases: Viability of human cancer cell lines after 72 h of drug (GDSC screen)
AMG-706 = compound: CC1(C)CNc2cc(NC(=O)c3cccnc3NCc3ccncc3)ccc21 [AMG-706]; settings: top dose 2 µM; top dose inferred
Procedure: (§1)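 Human cancer cell lines in 384-well plates, medium with 10% serum, drug for 72 h over a 256-fold dose range (nine 2-fold or five 4-fold steps up to the top dose). Adherent lines were fixed and stained with the nucleic acid dye Syto60, suspension lines read with resazurin; signal relative to control wells, capped at 0 and 100%. One two-parameter sigmoid per drug and line, fitted in a mixed model over all curves with the slope shared within a line.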

JQ1 = compound: Cc1sc2c(c1C)C(c1ccc(Cl)cc1)=N[C@@H](CC(=O)OC(C)(C)C)c1nnc(C)n1-2 [JQ1]
Procedure: as §1

CGP-60474 = compound: OCCCNc1cc(-c2ccnc(Nc3cccc(Cl)c3)n2)ccn1 [CGP-60474]; settings: top dose 0.256 µM; top dose inferred
Procedure: as §1

JNK Inhibitor VIII = compound: CCOc1nc(NC(=O)Cc2cc(OC)ccc2OC)cc(N)c1C#N [JNK Inhibitor VIII]; settings: top dose 10 µM; top dose inferred
Procedure: as §1

PHA-665752 = compound: Cc1[nH]c(/C=C2\C(=O)Nc3ccc(S(=O)(=O)Cc4c(Cl)cccc4Cl)cc32)c(C)c1C(=O)N1CCC[C@@H]1CN1CCCC1 [PHA-665752]; settings: top dose 2 µM
Procedure: as §1

JNJ-26854165 = compound: c1ccc2c(CCNc3ccc(Nc4ccncc4)cc3)c[nH]c2c1 [JNJ-26854165]; settings: top dose 10 µM
Procedure: as §1

Docetaxel = compound: CC(=O)O[C@@]12CO[C@@H]1C[C@H](O)[C@@]1(C)C(=O)[C@H](O)C3=C(C)[C@@H](OC(=O)[C@H](O)[C@@H](NC(=O)OC(C)(C)C)c4ccccc4)C[C@@](O)([C@@H](OC(=O)c4ccccc4)[C@H]21)C3(C)C [Docetaxel]; settings: top dose 0.0125 µM
Procedure: as §1

OSI-906 = compound: C[C@]1(O)C[C@@H](c2nc(-c3ccc4ccc(-c5ccccc5)nc4c3)c3c(N)nccn32)C1 [OSI-906]; settings: top dose 2.56 µM; top dose inferred
Procedure: as §1

FTI-277 = compound: COC(=O)[C@H](CCSC)NC(=O)c1ccc(NC[C@@H](N)CS)cc1-c1ccccc1 [FTI-277]; settings: top dose 1.024 µM; top dose inferred
Procedure: as §1

Belinostat = compound: O=C(/C=C/c1cccc(S(=O)(=O)Nc2ccccc2)c1)NO [Belinostat]; settings: top dose 20 µM; top dose inferred
Procedure: as §1

SB-715992 = compound: Cc1ccc(C(=O)N(CCCN)[C@@H](c2nc3cc(Cl)ccc3c(=O)n2Cc2ccccc2)C(C)C)cc1 [SB-715992]; settings: top dose 0.128 µM; top dose inferred
Procedure: as §1

YM155 = compound: COCC[n+]1c2c(n(Cc3cnccn3)c1C)C(=O)c1ccccc1C2=O [YM155]; settings: top dose 5.12 µM
Procedure: as §1

Cyclopamine = compound: CC1=C2C[C@H]3[C@@H](CC=C4C[C@@H](O)CC[C@@]43C)[C@@H]2CC[C@]12O[C@@H]1C[C@H](C)CN[C@H]1[C@H]2C [Cyclopamine]; settings: top dose 16 µM; top dose inferred
Procedure: as §1

NSC-207895 = compound: CN1CCN(c2ccc([N+](=O)[O-])c3no[n+]([O-])c23)CC1 [NSC-207895]; settings: top dose 20 µM; top dose inferred
Procedure: as §1

NVP-TAE684 = compound: COc1cc(N2CCC(N3CCN(C)CC3)CC2)ccc1Nc1ncc(Cl)c(Nc2ccccc2S(=O)(=O)C(C)C)n1 [NVP-TAE684]; settings: top dose 2 µM
Procedure: as §1

[1] = top dose 1 µM, screen: GDSC drug entry 1218, top dose inferred
[2] = top dose 2.56 µM, screen: GDSC drug entry 163

Row | Cell Line | AUC (AMG-706) | pIC50 (AMG-706) | AUC (JQ1; [1]) | pIC50 (JQ1; [1]) | AUC (JQ1; [2]) | pIC50 (JQ1; [2]) | AUC (CGP-60474) | pIC50 (CGP-60474) | AUC (JNK Inhibitor VIII) | pIC50 (JNK Inhibitor VIII) | AUC (PHA-665752) | pIC50 (PHA-665752) | AUC (JNJ-26854165) | pIC50 (JNJ-26854165) | AUC (Docetaxel) | pIC50 (Docetaxel) | AUC (OSI-906) | pIC50 (OSI-906) | AUC (FTI-277) | pIC50 (FTI-277) | AUC (Belinostat) | pIC50 (Belinostat) | AUC (SB-715992) | pIC50 (SB-715992) | AUC (YM155) | pIC50 (YM155) | AUC (Cyclopamine) | pIC50 (Cyclopamine) | AUC (NSC-207895) | pIC50 (NSC-207895) | AUC (NVP-TAE684) | pIC50 (NVP-TAE684)
1 | EHEB (lymphoid neoplasm, suspension) | 0.973 | < 5.70 | 0.97 | < 6.00 | 0.811 | 5.65 | 0.734 | 6.99 | 0.978 | < 5.00 | 0.972 | < 5.70 | 0.776 | 5.22 | 0.93 | < 7.90 | 0.978 | < 5.59 | 0.968 | < 5.99 | – | – | – | – | – | – | – | – | – | – | – | –
2 | KP-N-YS (neuroblastoma, adherent) | – | – | – | – | 0.596 | 6.52 | 0.766 | 6.97 | – | – | 0.967 | < 5.70 | – | – | – | – | 0.965 | < 5.59 | 0.978 | < 5.99 | 0.354 | 6.34 | 0.648 | 7.66 | 0.504 | 6.48 | 0.972 | < 4.80 | – | – | – | –
3 | KURAMOCHI (ovary, adherent) | 0.949 | < 5.70 | – | – | – | – | 0.641 | 7.38 | 0.957 | < 5.00 | 0.98 | < 5.70 | 0.892 | < 5.00 | 0.861 | < 7.90 | 0.98 | < 5.59 | 0.967 | < 5.99 | 0.48 | 5.96 | 0.948 | < 6.89 | 0.043 | > 7.70 | – | – | 0.984 | < 4.70 | – | –
4 | NCI-H322M (lung adenocarcinoma, suspension) | 0.987 | < 5.70 | 0.975 | < 6.00 | 0.96 | < 5.59 | 0.889 | < 6.59 | 0.986 | < 5.00 | 0.967 | < 5.70 | 0.987 | < 5.00 | 0.984 | < 7.90 | 0.969 | < 5.59 | 0.982 | < 5.99 | 0.548 | 5.76 | 0.982 | < 6.89 | 0.132 | > 7.70 | – | – | 0.963 | < 4.70 | – | –
5 | SJSA-1 (bone, adherent) | 0.959 | < 5.70 | 0.981 | < 6.00 | 0.553 | 6.64 | 0.654 | 7.34 | 0.982 | < 5.00 | – | – | 0.931 | < 5.00 | 0.508 | 9.09 | 0.733 | 6.09 | 0.874 | < 5.99 | 0.546 | 5.77 | 0.688 | 7.54 | 0.26 | 7.22 | 0.966 | < 4.80 | 0.979 | < 4.70 | 0.748 | 6.15
6 | SK-MM-2 (myeloma, suspension) | 0.987 | < 5.70 | 0.986 | < 6.00 | 0.529 | 6.71 | 0.777 | 6.97 | 0.986 | < 5.00 | – | – | 0.941 | < 5.00 | 0.987 | < 7.90 | 0.732 | 6.12 | 0.969 | < 5.99 | 0.579 | 5.68 | 0.908 | < 6.89 | 0.542 | 6.38 | 0.982 | < 4.80 | 0.956 | < 4.70 | 0.712 | 6.29
7 | SNU-C1 (large intestine, suspension) | 0.979 | < 5.70 | 0.852 | < 6.00 | 0.766 | 5.85 | 0.906 | < 6.59 | 0.978 | < 5.00 | – | – | 0.912 | < 5.00 | 0.931 | < 7.90 | 0.72 | 6.04 | 0.979 | < 5.99 | 0.566 | 5.69 | 0.947 | < 6.89 | 0.68 | 5.89 | 0.98 | < 4.80 | 0.98 | < 4.70 | 0.564 | 6.69
8 | SNU-C2B (large intestine, adherent) | 0.977 | < 5.70 | 0.978 | < 6.00 | 0.744 | 5.99 | 0.785 | 6.83 | 0.98 | < 5.00 | 0.978 | < 5.70 | 0.787 | 5.23 | 0.815 | 8.01 | 0.892 | < 5.59 | 0.976 | < 5.99 | 0.371 | 6.31 | 0.704 | 7.44 | 0.094 | > 7.70 | – | – | 0.959 | < 4.70 | – | –
9 | SU-DHL-16 (B-cell lymphoma, suspension) | 0.996 | < 5.70 | 0.994 | < 6.00 | 0.468 | 6.87 | 0.691 | 7.33 | 0.994 | < 5.00 | – | – | 0.98 | < 5.00 | 0.894 | 8.11 | 0.992 | < 5.59 | 0.995 | < 5.99 | 0.008 | > 7.11 | 0.73 | 7.54 | 0.007 | > 7.70 | 0.992 | < 4.80 | 0.79 | 5.19 | 0.9 | 5.88

pIC50: −log10 of the molar value. The IC50 comes from the fitted curve, where viability falls to half of the control; fits outside the tested doses are given as limits. AUC, from the same fit, is the share of area under the viability curve across the 256-fold dose range; it is 1 without any effect and falls as sensitivity rises. For some of these results: The top dose, if marked as inferred, comes from the curve model; the source does not state it. For some of these results: An entry number marks a drug with two screens in the source, which often give different values.
